± gives the standard deviation of the averaged measurements. The list shows a part of the results.
system: PfAP2-EXP AP2 domain (GST-tagged); assay: gcPBM binding intensity (ln(normalized median fluorescence intensity)); higher = stronger DNA binding
Summary of the method: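 Using an Agilent 4 × 180k array, primer-extended double-stranded 36-bp intergenic genomic probes and negative controls were exposed for 1 h to GST-fused P. falciparum DNA-binding domains expressed in E. coli. Binding was carried out in 1× PBS with 1% milk, 0.2 mg/ml BSA, 0.5% salmon testes DNA and 0.03% Triton X-100, and protein was detected with Alexa488 anti-GST antibody and a 488 nm scan. Binding intensity is the highest Masliner-normalised natural-log median intensity across replicate spots of either probe orientation.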

| Sequence | gcPBM binding intensity (ln) |
| --- | --- |
| TTTAAGCGTTCACTGCTGCACTTTTATGTTGTGACC | 8.71 ± 0.51 |
| AAAAAAAAAAAAAGCACACACACATATGCGTATATA [CACACA_site953] | 8.43 ± 0.33 |
| GGTAGAAAATCAGTTAAACACACACCGAAAAAAAAA [CACACA_site8934] | 8.72 ± 0.5 |
| ATTTGTATAATAAGTTGTACAATTCTTACAATATAA [XGTACX_site4164] | 8.46 ± 0.22 |
| ATGGATAATAATAAGTGTACACATATATTTAGAAGA [XGTACX_site244] | 8.94 ± 0.33 |
| TATAAGAAATAAAACCTGATTATAAACCTGTAACCA [CACACA_negctrl_site1302] | 8.3 ± 0.45 |
| TAAATATAACAGAATAATATGTGGATTAATAAATGA [CACACA_negctrl_site438] | 8.56 ± 0.23 |
| TTAAGTTACAATTCTCGTACACATTAAAAGAAAATT [XGTACX_site699] | 8.6 ± 0.53 |
| AAAAAAAAAAAAAAAACACACATGTATACTAGAATA [CACACA_site7108] | 8.67 ± 0.31 |
| ATATAATATGTTGAATGTACTTAAAAAAATGTATCT [XGTACX_site5385] | 8.49 ± 0.34 |
| GCATACATCAAGCACACACACACACGCACACGCACA [CACACA_site6311] | 8.71 ± 0.5 |
| ACTACGAATGGTAGAGTGCAGTCTGGAGAAGAGTAC [GTGCAC_site9685] | 9.17 ± 0.33 |
| AAAAAAAAGAATTAGGCACACAATTTTAATATAGGA [CACACA_site1522] | 8.41 ± 0.47 |
| TTATGTTTCATAAAAAATTAATCAAACATATATAAG [CACACA_negctrl_site666] | 8.09 ± 0.4 |
| TTATGGATGGACAATAATAAAATTTTTACTTTTATT [CACACA_negctrl_site908] | 8.49 ± 0.33 |
| GTGAAGTTCAAAATATGTACTTATGTATGTATTTTT [XGTACX_site165] | 8.18 ± 0.16 |
| TCATATATATTGAAATGTACTTATTTTTTCCTCATA [XGTACX_site6526] | 8.45 ± 0.3 |
| CATACACAGAAACACACACACATATATACATATATA [CACACA_site1094] | 8.59 ± 0.56 |
| AAAAAAAAAATTATATATATATCCCTTATTTTTTCT [TGCATGCA_negctrl_site151] | 8.59 ± 0.67 |
| TATACATAGAAACACACACACATAAATAAATATATA [CACACA_site1342] | 8.84 ± 0.45 |
| CCTTAAATAATATATTCACACAATATAACAAAAATT [CACACA_site4892] | 8.47 ± 0.35 |
| TGGTATATAAAACACACACACATATGTATATATATA [CACACA_site926] | 9.23 |

| Sequence | gcPBM binding intensity (ln) |
| --- | --- |
| ATATGTTTTAAGTGTACACATATAATGTATTTTGTT [CACACA_site4929] | 8.71 ± 0.25 |
| TTGCTCATTGAAATTATACACACCAAATATATAAAT [CACACA_site2482] | 8.42 ± 0.44 |
| TATTATGCTATTTAATGTACGGAATTTATATATATA [XGTACX_site564] | 8.66 ± 0.14 |
| AACCTATCTATAGGAACAATATATATATATATAATT [CACACA_negctrl_site1707] | 8.64 ± 0.56 |
| TAAAAAAAAACATGATGTACATAAAATTTTTTACTT [XGTACX_site7056] | 8.57 ± 0.46 |
| AAAATATATAAACGCACATATATTTATGTATATATA [CACACA_negctrl_site163] | 8.64 ± 0.49 |
| TTATTAGAGATGTTAAGATATAGGGATAATTTCGAT [XGTACX_negctrl_site395] | 8.34 ± 0.49 |
| TACATATATTTAAGGAGTACAAAAAATAATGATAAA [XGTACX_site3539] | 8.99 ± 0.37 |
| AAAAGGGAAAAAATTAAAATTATATATATATATATG [CACACA_negctrl_site137] | 8.39 ± 0.18 |
| AAGCTTAAAAATGGGGGTACGTCATAGGGATTCAAC [XGTACX_site8080] | 9.35 ± 0.52 |
| TTTGACACAATATTTTGTACGAAACTATTAATTCAA [XGTACX_site4853] | 8.22 ± 0.32 |
| AATATATAAACATATACACACAAAAACATATATATA [CACACA_site4855] | 8.79 ± 0.32 |
| AATGTACACGCACCCACACACAAACAAATATAAATA [CACACA_site7319] | 8.94 ± 0.67 |
| TTACGAATGAATATATGTACATATATATATATATAT [XGTACX_site3790] | 10.1 ± 0.51 |
| ATGTTTTCAAAAATAAAACATATAAATAAATAAATA [TGCATGCA_negctrl_site226] | 8.42 ± 0.4 |
| GACATAGTATTAAGTTGTACATATATAAAAATAAAT [XGTACX_site1583] | 8.65 ± 0.32 |
| TTGCTTTTCATTTATTGTACATACCCAGTAGGATAA [XGTACX_site3939] | 8.88 ± 0.41 |
| TTATAATACCTACAAAGTACAAACTTAAATATGAAC [XGTACX_site5684] | 8.55 ± 0.41 |
| CAACAACAAATGAGAAGTACATAAATATTAACAATA [XGTACX_site4625] | 8.7 ± 0.57 |
| ATATATATATATATATGTACATAATGCATATAATAT [XGTACX_site6142] | 10.2 ± 0.56 |
| GAAGGAAAAGATACGATAAAATAAGATATTAATTTA [GTGCAC_negctrl_site419] | 8.4 ± 0.42 |
| TTAATACTTTTTTCTGTACACACTTGATTTACTATA [CACACA_site2799] | 8.95 ± 0.44 |

| Sequence | gcPBM binding intensity (ln) |
| --- | --- |
| TTCTTCAATATATTCTTACACACTTAAAAAAAAAAA [CACACA_site228] | 8.44 ± 0.35 |
| TAAACACCCATACATACACACATACATACACCCATA [CACACA_site5125] | 8.71 ± 0.64 |
| TTAAAGCTTGCATATACACACATACATAAATTCATA [CACACA_site7208] | 8.48 ± 0.32 |
| GTATACAACATATGAACACACAAAATATTTTTTTTT [CACACA_site2928] | 8.62 ± 0.52 |
| TATCTCCACAAAAGATGTACTCATATTAATTTATAA [XGTACX_site3535] | 8.26 ± 0.28 |
| ATATATTTATATTTTTGTACCCAAAATTGTTTGATG [XGTACX_site3581] | 8.57 ± 0.46 |
| ATTGAGGCTGGTTATATAATAATTTTATTATTTTAG [GTGCAC_negctrl_site409] | 8.4 ± 0.34 |
| TAAAAGTTGAAGCACACACACAAAAGAAATACAATA [CACACA_site6649] | 8.96 ± 0.45 |
| TTTTTTTTTTTTTATTGTACATACTTTTAAATATAT [XGTACX_site4303] | 8.55 ± 0.59 |
| GTATATAAATAAATAGTGCATTATTAAAAATAATGT | 8.88 ± 0.32 |
| ATAAATAAAGGACACACACACACACTAATAAAAAAA [CACACA_site8840] | 8.75 ± 0.64 |
| TATATAATATATTTATGTACTCACAATGGGGTCTAC [XGTACX_site2691] | 9.02 ± 0.64 |
| TATGAAAAGTAAAGTACACACAGGAAAAAAAAAAAA [CACACA_site1749] | 8.66 ± 0.53 |
| TTTGTTATATTTAATACACACATATTATAAACACAT [CACACA_site7703] | 8.54 ± 0.39 |
| GTTCATATAATAAAATGTACATAATATATTATATAT [XGTACX_site7623] | 8.52 ± 0.36 |
| AAATTACTGTAAAAAAGTACAGAAGTTCTTATTTTT [XGTACX_site7416] | 8.14 ± 0.26 |
| AGCTACAAAAATTAATATATATATGTATAGTTATAC [TGCATGCA_negctrl_site531] | 8.28 ± 0.41 |
| TATATCTATTTCAAATGTACTTATATGATTCTTATA [XGTACX_site6277] | 8.4 ± 0.37 |
| AACAAATATGATTTTTTATATATTTTTAAATTTGGT [GTGCAC_negctrl_site189] | 8.12 ± 0.4 |
| AGTTTAATTTTGTATACACACATTTGAATTATTAAT [CACACA_site7625] | 8.77 ± 0.5 |
| AAATGTTCAGAAACTATTATAAAAATGGAATAATAT [CACACA_negctrl_site1544] | 8.58 ± 0.51 |
| TGCCATCATATCATAGGTACACAAACATATAAAGAA [XGTACX_site4137] | 9.03 ± 0.46 |

| Sequence | gcPBM binding intensity (ln) |
| --- | --- |
| GTATTATATTTTAATACACACCCAAATATTAAAAAG [CACACA_site8968] | 8.58 ± 0.23 |
| TTAACAAATAAATGCACACATATATATAAATAATAT [CACACA_site28] | 8.37 ± 0.29 |
| TTATGCTCAAAGAAAAGTACATAAATAAAAGTATAT [XGTACX_site7365] | 8.65 ± 0.39 |
| TAAATATTATATTTATGTACATAAGTTTTTTTTAAT [XGTACX_site3559] | 8.54 ± 0.35 |
| CTTAATATGGATATTGCATGTAGAACATGAACAATA [TGCATGCA_site760] | 8.65 ± 0.4 |
| TATATGTAGATTAAACGTACTTACAACGGAATTATC [XGTACX_site3036] | 8.78 ± 0.4 |
| GAATATTCAACATAATGTACAAGTATTCATTTCTTT [XGTACX_site7860] | 8.45 ± 0.35 |
| AAAATTCATAAATACACACACGCACATATATATATA [CACACA_site4227] | 9.91 ± 0.32 |
| TAATAAACTTAAAAATGTACATATATTTATTATTAC [XGTACX_site4321] | 8.34 ± 0.35 |
| CAAAAATAAAAGAAATGTACAAAAAATAATAAAAAA [XGTACX_site6597] | 8.76 ± 0.54 |
| AAAAATTTTCAAGTGTGTACATATTTTCATTTAACA [XGTACX_site6186] | 8.61 ± 0.4 |
| AAATATATATTCATGTGTACACACAAAAAAAAATAA [XGTACX_site4552] | 8.62 ± 0.057 |
| TTTATACTTTTAAATTGTACTATAAAAAGGAATACA [XGTACX_site2537] | 8.32 ± 0.27 |
| TTTTTATTTAGCTAAGCATGCTAACGATGACACTTC [TGCATGCA_site79] | 8.66 ± 0.45 |
| ATGTATATATTTTTATGTACATATTTTTAATTTATA [XGTACX_site2982] | 8.13 ± 0.29 |
| TAATAAAAAATTAAAAAAAATAAAAATAAAAATAAA [GTGCAC_negctrl_site78] | 8.26 ± 0.49 |
| CATACATATACTTTGTGTACATATATATATTATATA [XGTACX_site97] | 8.54 ± 0.24 |
| AAGAAAAAGTATCCTCTATCTTTATATAAACTATTA [TGCATGCA_negctrl_site2] | 8.09 ± 0.42 |
| AAGAAAATGTATATATGTACATACAATCAAAAGAAG [XGTACX_site3454] | 9.12 ± 0.31 |
| AAAATATATTAAGGCACACACATACAGATATATATA [CACACA_site5951] | 8.9 ± 0.37 |
| TACGTGAAATTATATACACACATAAATATGGGTGTA [CACACA_site5687] | 8.04 ± 0.36 |
| TTTTTTCTTTTTTTTTTTTTTTTCTTTTTTTTTTTT [GTGCAC_negctrl_site196] | 8.13 ± 0.55 |

Source: the supplement of paper PMC11417369
